# Measured values as given in the supplement of paper PMC4967469.
# Legend:
# Assay in all cases: Viability of human cancer cell lines after 72 h of drug (GDSC screen)
# piperlongumine = compound: COc1cc(/C=C/C(=O)N2CCC=CC2=O)cc(OC)c1OC [piperlongumine]; settings: top dose 10 µM
# Description: (§1)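 Human cancer cell lines in 384-well plates, medium with 10% serum, drug for 72 h over a 256-fold dose range (nine 2-fold or five 4-fold steps up to the top dose). Adherent lines were fixed and stained with the nucleic acid dye Syto60, suspension lines read with resazurin; signal relative to control wells, capped at 0 and 100%. One two-parameter sigmoid per drug and line, fitted in a mixed model over all curves with the slope shared within a line.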
# PIK-93 = compound: CC(=O)Nc1nc(C)c(-c2ccc(Cl)c(S(=O)(=O)NCCO)c2)s1 [PIK-93]; settings: top dose 20 µM
# Description: as §1
# ABT-263 = compound: CC1(C)CCC(c2ccc(Cl)cc2)=C(CN2CCN(c3ccc(C(=O)NS(=O)(=O)c4ccc(N[C@H](CCN5CCOCC5)CSc5ccccc5)c(S(=O)(=O)C(F)(F)F)c4)cc3)CC2)C1 [ABT-263]; settings: top dose 2 µM; top dose inferred
# Description: as §1
# GW 441756 = compound: Cn1cc(/C=C2\C(=O)Nc3cccnc32)c2ccccc21 [GW 441756]; settings: top dose 2 µM; top dose inferred
# Description: as §1
Cell Line,AUC (piperlongumine),IC50 (piperlongumine),AUC (PIK-93),IC50 (PIK-93),AUC (ABT-263),IC50 (ABT-263),AUC (GW 441756),IC50 (GW 441756)
"647-V (bladder, adherent)",0.754,3380 nM,0.934,> 20000 nM,0.979,> 2000 nM,0.982,> 2000 nM
"HCC1569 (breast, adherent)",0.874,> 10000 nM,0.826,18000 nM,0.588,235 nM,0.977,> 2000 nM
"OVKATE (ovary, adherent)",0.87,> 10000 nM,0.724,8450 nM,0.969,> 2000 nM,0.804,1980 nM
"HN (head and neck, adherent)",0.66,1690 nM,0.988,> 20000 nM,0.945,> 2000 nM,0.97,> 2000 nM
"MDA-MB-415 (breast, adherent)",0.829,9320 nM,0.897,> 20000 nM,0.833,1950 nM,0.909,> 2000 nM
"TOV-21G (ovary, adherent)",0.67,1950 nM,0.974,> 20000 nM,0.926,> 2000 nM,0.972,> 2000 nM
"KON (head and neck, adherent)",0.705,2330 nM,0.986,> 20000 nM,0.917,> 2000 nM,0.902,> 2000 nM
"FADU (head and neck, adherent)",0.698,2190 nM,0.968,> 20000 nM,0.948,> 2000 nM,0.869,1740 nM
"EFM-192A (breast, adherent)",0.854,9330 nM,0.756,7550 nM,0.886,> 2000 nM,0.977,> 2000 nM
"SW1417 (large intestine, adherent)",0.975,> 10000 nM,0.934,> 20000 nM,0.719,586 nM,0.983,> 2000 nM
"IHH-4 (thyroid, semi-adherent)",0.73,2390 nM,0.896,15900 nM,0.993,> 2000 nM,0.945,> 2000 nM
"OE33 (oesophagus, adherent)",0.802,6030 nM,0.814,13600 nM,0.969,> 2000 nM,0.942,> 2000 nM
"G-292 Clone A141B1 (osteosarcoma, adherent)",0.789,7770 nM,0.776,13500 nM,0.871,> 2000 nM,0.957,> 2000 nM
"KU-19-19 (bladder, adherent)",0.609,1250 nM,0.987,> 20000 nM,0.984,> 2000 nM,0.968,> 2000 nM
"NCI-H2110 (non-small cell lung carcinoma, adherent)",0.844,7460 nM,0.638,3040 nM,0.976,> 2000 nM,0.973,> 2000 nM
"CAL-33 (head and neck, adherent)",0.787,4340 nM,0.669,3700 nM,0.865,1770 nM,0.866,1780 nM
"T98G (glioma, adherent)",0.814,,0.82,10400 nM,0.953,> 2000 nM,0.989,> 2000 nM
"RPMI-2650 (head and neck, adherent)",0.731,3030 nM,0.856,18300 nM,0.917,> 2000 nM,0.985,> 2000 nM
"KYAE-1 (oesophagus, suspension)",0.786,4820 nM,0.512,1350 nM,0.821,1320 nM,0.985,> 2000 nM
"JHU-011 (head and neck, adherent)",0.813,5270 nM,0.821,11400 nM,0.931,> 2000 nM,0.941,> 2000 nM
"SK-OV-3 (ovary, adherent)",0.834,8960 nM,0.76,8770 nM,0.963,> 2000 nM,0.958,> 2000 nM
"KMRC-20 (kidney, adherent)",0.824,6070 nM,0.984,> 20000 nM,0.944,> 2000 nM,0.989,> 2000 nM
"OACp4C (oesophagus, adherent)",0.874,> 10000 nM,0.313,333 nM,0.623,292 nM,0.888,> 2000 nM
"HuO9 (osteosarcoma, adherent)",0.779,4540 nM,0.842,16400 nM,0.6,242 nM,0.976,> 2000 nM
"DU-145 (prostate, adherent)",0.734,3170 nM,0.948,> 20000 nM,0.755,749 nM,0.839,1590 nM

Cell Line,AUC (piperlongumine),IC50 (piperlongumine),AUC (PIK-93),IC50 (PIK-93),AUC (ABT-263),IC50 (ABT-263),AUC (GW 441756),IC50 (GW 441756)
"COLO-205 (large intestine, suspension)",0.823,5810 nM,0.867,17600 nM,0.774,773 nM,0.987,> 2000 nM
"OVMIU (ovary, adherent)",0.783,5370 nM,0.52,1440 nM,0.921,> 2000 nM,0.923,> 2000 nM
"RVH-421 (melanoma, adherent)",0.696,2740 nM,0.77,10500 nM,0.903,> 2000 nM,0.97,> 2000 nM
"CAL-12T (non-small cell lung carcinoma, adherent)",0.76,3900 nM,0.781,9320 nM,0.966,> 2000 nM,0.967,> 2000 nM
"SJRH30 (rhabdomyosarcoma, adherent)",0.718,2650 nM,0.901,> 20000 nM,0.979,> 2000 nM,0.886,> 2000 nM
"Hey (ovary, adherent)",0.755,3220 nM,0.791,8390 nM,0.925,> 2000 nM,0.882,1900 nM
"DBTRG-05MG (glioma, adherent)",0.786,5120 nM,0.866,> 20000 nM,0.769,887 nM,0.977,> 2000 nM
"NCI-H1755 (lung adenocarcinoma, adherent)",0.857,> 10000 nM,0.878,> 20000 nM,0.981,> 2000 nM,0.969,> 2000 nM
"LN-405 (glioma, adherent)",0.818,7620 nM,0.86,> 20000 nM,0.983,> 2000 nM,0.982,> 2000 nM
"RT4 (bladder, adherent)",0.808,5500 nM,0.538,1590 nM,0.987,> 2000 nM,0.909,> 2000 nM
"OVCA433 (ovary, adherent)",0.699,2430 nM,0.868,> 20000 nM,0.985,> 2000 nM,0.941,> 2000 nM
"BxPC-3 (pancreas, adherent)",0.715,2750 nM,0.692,4640 nM,0.972,> 2000 nM,0.982,> 2000 nM
"OVCAR-8 (ovary, adherent)",0.774,3500 nM,0.793,8080 nM,0.963,> 2000 nM,0.99,> 2000 nM
"YH-13 (glioma, adherent)",0.807,5470 nM,0.68,4100 nM,0.923,> 2000 nM,0.975,> 2000 nM
"EGI-1 (biliary tract, adherent)",0.81,7350 nM,0.849,> 20000 nM,0.95,> 2000 nM,0.941,> 2000 nM
"HT-1080 (fibrosarcoma, adherent)",0.623,1310 nM,0.962,> 20000 nM,0.949,> 2000 nM,0.989,> 2000 nM
"C-33-A (cervix, adherent)",0.617,1310 nM,0.716,5120 nM,0.981,> 2000 nM,0.962,> 2000 nM
"RO82-W-1 (thyroid, adherent)",0.825,8350 nM,0.937,> 20000 nM,0.966,> 2000 nM,0.983,> 2000 nM
"DOK (head and neck, adherent)",0.77,5900 nM,0.962,> 20000 nM,0.799,1600 nM,0.953,> 2000 nM
"HCC1395 (breast, adherent)",0.89,> 10000 nM,0.948,> 20000 nM,0.917,> 2000 nM,0.927,> 2000 nM
"NCI-H1993 (lung adenocarcinoma, adherent)",0.717,3180 nM,0.895,> 20000 nM,0.979,> 2000 nM,0.977,> 2000 nM
"WM793B (melanoma, adherent)",0.651,1720 nM,0.766,8140 nM,0.96,> 2000 nM,0.984,> 2000 nM
"NUGC-4 (stomach, adherent)",0.78,4120 nM,0.843,14200 nM,0.613,256 nM,0.954,> 2000 nM
"OVTOKO (ovary, adherent)",0.714,3010 nM,0.835,18500 nM,0.759,882 nM,0.941,> 2000 nM

# A lower IC50 marks a more sensitive line; where the fit passes the top or lowest dose, that dose stands as a limit. AUC, from the same fit, is the share of area under the viability curve across the 256-fold dose range: 1 means no effect, lower means more sensitive. For some of these results: An inferred top dose comes from the curve model; the source does not state it.
